Source: PubChem BioAssay AID2546 (National Center for Advancing Translational Sciences (NCATS), 2010)
Among all 310,000 compounds or so, about 11,000 (3.5%) were called active. This list was built around the results that the source calls inconclusive (neither active nor inactive); the mix of calls is not that of the screen. Calls come from the whole dose curve; as a rule, active = well fitted inhibition curve with a large enough effect; inconclusive = small, poorly fitted or top-dose-only effect, or effect the other way; inactive = flat fitted curve, though single readings scatter. Potencies of inconclusive entries are left out as doubtful fits.

experiment: VP16 counterscreen qHTS for inhibitors of ROR gamma transcriptional activity; conditions: Drosophila S2 Gal4-VP16 UAS-luciferase, luminescence, 20 h; series mostly up to 53.6 µM;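 note: Gal4-VP16 expression switched on by copper sulfate through the metallothionein promoter; nearly all actives have a fitted effect of over 50% in size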
Potency is the fitted concentration of half-maximal effect; tags give direction and shape of the fitted curve.

Compound	Potency
CC(C)=CCCC1(C)C=Cc2c(ccc3c2[nH]c2cc(O)c(C)cc23)O1 (stereo not drawn)	inconclusive [inhibitor, single point]
CCCc1cc(-c2[nH]ncc2-c2ccc3c(c2)OCCCO3)c(O)cc1O	inconclusive [inhibitor, single point]
CCOc1ccc(NC(=O)NCCCn2c(C)nc3cc(C)c(C)cc32)cc1	inactive
COCC(=O)N1CCC2(CCCN(Cc3nccs3)C2)CC1	inactive
COc1ccc(CNS(=O)(=O)c2ccc3c(c2)N(C(C)=O)CC(C)S3)cc1 (stereo not drawn)	inconclusive [inhibitor, single point]
O=C(O)c1ccc(C2Nc3ccccc3C(=O)N2Cc2ccccc2)cc1 (stereo not drawn)	inconclusive [inhibitor, single point]
CC(C)(C)c1nnc(NC(=O)Cc2ccccc2[N+](=O)[O-])s1	inconclusive [activator, single point]
Nc1ccc(N2CCCCC2)c(S(=O)(=O)Nc2ccccc2Cl)c1	inactive
C=CCNC(=S)N/N=C/c1ccc(OCc2ccccc2Cl)cc1	active: 1.58 µM
O=C(C1CCN(Cc2ccc(F)cc2)CC1)N(CCc1ccccc1)Cc1ccccc1	inactive
CCCC[C@@H]1C[C@H]1C(NC(=O)c1ccccc1)c1ccc(C(=O)OC)cc1 (stereo partly drawn)	inactive
COc1ccc(/C=C2\CC/C(=C\c3ccc(OC)c(OC)c3)C2=O)cc1OC	active: 15.8 µM
Fc1ccccc1-n1c(-c2ccc3ccccc3n2)n[nH]c1=S	inconclusive [inhibitor, full curve]
Cc1cccc(CN2C(=O)N/C(=C/c3cc(C)n(-c4ccccn4)c3C)C2=O)c1	inconclusive [inhibitor, single point]
CCCOc1ccc(-c2c(C(=O)N/N=C/c3ccccc3OCC)nnn2-c2nonc2N)cc1	inactive
Clc1ccc(CSc2ccc(-c3ccco3)nn2)cc1	inconclusive [activator, partial curve]
CC(=O)N(/N=C1\Sc2ccccc2C1=O)c1ccccc1C	inconclusive [inhibitor, single point]
O=[N+]([O-])c1ccccc1-c1cc(-c2cc(Cl)ccc2O)n[nH]1	inconclusive [inhibitor, single point]
CCOc1cc(C(=S)N2CCOCC2)ccc1OS(=O)(=O)c1ccc(NC(C)=O)cc1	inconclusive [inhibitor, single point]
O=C(NC(=S)N1CCN(c2nc(-c3ccccc3)cs2)CC1)c1cncc(Br)c1	active: 0.224 µM
COc1ccc(CC(=O)n2c(CC#N)nc3ccccc32)cc1OC	inconclusive [inhibitor, single point]
COc1ccc(C(=S)N2CCC(C(N)=O)CC2)cc1Br	inactive
OC(CN1CCOCC1)(c1ccccc1)c1ccccn1 (stereo not drawn)	inactive
CCc1nnc(NC(=O)CSc2nc3c(c(=O)n2CC)SC(C)C3)s1 (stereo not drawn)	inconclusive [inhibitor, single point]

Compound	Potency
O=C(O)c1ccc(-c2ncc[nH]2)cc1	inactive
CC(C)[C@H]1C(=O)Nc2ccccc2N1C(=O)N[C@@H](Cc1ccccc1)C(=O)N[C@@H](Cc1ccccc1)C(=O)O	inactive
CC(C)(C)c1nc(NC(=O)Nc2ccccc2)sc1Br	inconclusive [inhibitor, single point]
COc1cc(-c2noc(CCCC(=O)Nc3ccc(C(N)=O)cc3)n2)cc(OC)c1OC	inconclusive [activator, single point]
Cc1cc(C(=O)NCCN2C(=O)S/C(=C\c3cccs3)C2=O)ccc1[N+](=O)[O-]	inconclusive [inhibitor, single point]
Cc1ccc(C)c(N2CCN(C(=O)CCCCCn3c(=S)[nH]c4ccc(N5CCOCC5)cc4c3=O)CC2)c1	active: 5.62 µM
Cc1occc1C(=O)N/N=C/c1sc(N2CCOCC2)nc1-c1ccccc1	inconclusive [inhibitor, single point]
CCNc1nc(NC(C)C)nc(N(C#N)CCOc2ccccc2)n1	inconclusive [inhibitor, single point]
C=C1C(N)CC2CC1C2(C)C (stereo not drawn)	inactive
O=C(NCc1ccc2c(c1)OCO2)c1nc(S(=O)(=O)Cc2ccccc2)ncc1Cl	inconclusive [inhibitor, single point]
Cc1onc(-c2ccccc2)c1C(=O)N/N=C(\N)COc1ccc(Cl)cc1	active: 1.26 µM
CCN(CC)c1ccc(/C=N/Nc2nc(C)cc(C)n2)c(O)c1	active: 4.47 µM
CCOc1cc(NC(=S)Nc2ccccc2)c(OCC)cc1NC(=O)c1ccc(OC)cc1	active: 11.2 µM
O=C1N/C(=C/c2ccc(N3CCOCC3)o2)C(=O)N1c1cccc(Cl)c1	active: 4.47 µM
CCNC(=O)NC(=O)C(C)OC(=O)CCCSc1nc2ccccc2s1 (stereo not drawn)	active: 4.47 µM
CSc1nc(-c2ccccc2)nc(SC)c1C(C)=O	inactive
Cc1ccccc1OCCCCn1cnc2ccccc21	active: 10 µM
Cn1cc(CNC(=O)c2ccc3nc(Cc4ccccc4F)oc3c2)cn1	inconclusive [activator, full curve, poor fit]
Cc1cccc(NC(=O)c2ccc3c(=O)n(CC4CCCO4)c(=S)[nH]c3c2)c1 (stereo not drawn)	inconclusive [inhibitor, single point]
CC1CCN(CCCNC(=O)c2cc3c(s2)-c2ccccc2OC3)CC1	inactive
Cc1ccc(/C=N/Nc2cccc3cccnc23)c(O)c1	inconclusive [inhibitor, single point]
CC(C)N(Cc1nc(-c2ccccc2)no1)C(=O)COc1ccccc1	inconclusive [inhibitor, single point]
COc1ccc2c(c1)CCc1c(C(=O)NC3CCCCC3)noc1-2	inconclusive [inhibitor, single point]
CCCn1nc(C(=O)NC2CCCc3ccccc32)c2ccccc2c1=O (stereo not drawn)	inconclusive [inhibitor, single point]
